Test results reported in the supplement of paper PMC4967469.
The IC50 comes from the fitted curve, where viability falls to half of the control; fits outside the tested doses are given as limits. AUC is the area under the same curve over the 256-fold range up to the top dose, as a fraction: 1 means no effect, lower means more sensitive. For some assays here: An inferred top dose was derived from the fitted curves, not read from the paper. For some assays here: An entry number marks a drug with two screens in the source, which often give different values.

Experiments:
Assay in all cases: Viability of human cancer cell lines after 72 h of drug (GDSC screen)
AZD6244 = compound: Cn1cnc2c(F)c(Nc3ccc(Br)cc3Cl)c(C(=O)NOCCO)cc21 [AZD6244]; conditions: top dose 4 µM; screen: GDSC drug entry 1498; top dose inferred
Procedure: (§1)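 Human cancer cell lines in 384-well plates, medium with 10% serum, drug for 72 h over a 256-fold dose range (nine 2-fold or five 4-fold steps up to the top dose). Adherent lines were fixed and stained with the nucleic acid dye Syto60, suspension lines read with resazurin; signal relative to control wells, capped at 0 and 100%. One two-parameter sigmoid per drug and line, fitted in a mixed model over all curves with the slope shared within a line.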

EX-527 = compound: NC(=O)C1CCCc2c1[nH]c1ccc(Cl)cc21 [EX-527]; conditions: top dose 20 µM
Procedure: as §1

YM201636 = compound: Nc1ccc(C(=O)Nc2cccc(-c3nc(N4CCOCC4)c4oc5ncccc5c4n3)c2)cn1 [YM201636]; conditions: top dose 5.12 µM; top dose inferred
Procedure: as §1

AS601245 = compound: N#CC(c1ccnc(NCCc2cccnc2)n1)c1nc2ccccc2s1 [AS601245]; conditions: top dose 8 µM; top dose inferred
Procedure: as §1

Cell Line | AUC (AZD6244) | IC50 (AZD6244) [µM] | AUC (EX-527) | IC50 (EX-527) [µM] | AUC (YM201636) | IC50 (YM201636) [µM] | AUC (AS601245) | IC50 (AS601245) [µM]
GAMG (glioma, adherent) | 0.92 | > 4 | 0.985 | > 20 | 0.888 | > 5.12 | 0.822 | 4.98
GCT (soft tissue, adherent) | 0.964 | > 4 | 0.987 | > 20 | 0.989 | > 5.12 | 0.77 | 2.83
GMS-10 (glioma, adherent) | 0.87 | 3.68 | 0.978 | > 20 | 0.984 | > 5.12 | 0.909 | > 8
GP5d (large intestine, adherent) | 0.819 | 1.97 | 0.991 | > 20 | 0.847 | 3.19 | 0.827 | 4.19
H4 (glioma, adherent) | 0.957 | > 4 | 0.981 | > 20 | 0.972 | > 5.12 | 0.871 | 7.38
H513 (mesothelioma, semi-adherent) | 0.914 | > 4 | 0.986 | > 20 | 0.808 | 3.36 | 0.985 | > 8
H2369 (mesothelioma, adherent) | 0.933 | > 4 | 0.981 | > 20 | 0.929 | > 5.12 | 0.868 | 7.72
H2373 (mesothelioma, adherent) | 0.894 | > 4 | 0.982 | > 20 | 0.945 | > 5.12 | 0.923 | > 8
H2461 (mesothelioma, adherent) | 0.844 | 4 | 0.979 | > 20 | 0.94 | > 5.12 | 0.877 | > 8
H2591 (mesothelioma, adherent) | 0.877 | > 4 | 0.982 | > 20 | 0.898 | > 5.12 | 0.858 | > 8
H2595 (mesothelioma, adherent) | 0.906 | > 4 | 0.976 | > 20 | 0.954 | > 5.12 | 0.887 | > 8
H2722 (mesothelioma, adherent) | 0.955 | > 4 | 0.978 | > 20 | 0.966 | > 5.12 | 0.764 | 3.45
H2731 (mesothelioma, adherent) | 0.875 | > 4 | 0.949 | > 20 | 0.793 | 2.72 | 0.95 | > 8
H2795 (mesothelioma, adherent) | 0.772 | 1.52 | 0.987 | > 20 | 0.823 | 2.97 | 0.945 | > 8
H2803 (mesothelioma, adherent) | 0.82 | 2.79 | 0.985 | > 20 | 0.978 | > 5.12 | 0.791 | 4.26
H2818 (mesothelioma, adherent) | 0.908 | > 4 | 0.983 | > 20 | 0.989 | > 5.12 | 0.989 | > 8
H2869 (mesothelioma, adherent) | 0.905 | > 4 | 0.984 | > 20 | 0.85 | > 5.12 | 0.743 | 2.99
H3118 (head and neck, adherent) | 0.207 | 0.031 | 0.983 | > 20 | 0.86 | 4.95 | 0.747 | 2.77
H3255 (lung adenocarcinoma, adherent) | 0.907 | > 4 | 0.983 | > 20 | 0.916 | > 5.12 | 0.82 | 5.78
HARA (lung squamous cell carcinoma, adherent) | 0.963 | > 4 | 0.98 | > 20 | 0.9 | > 5.12 | 0.919 | > 8
HCC38 (breast, adherent) | 0.984 | > 4 | 0.974 | > 20 | 0.885 | > 5.12 | 0.777 | 3.49
HCC70 (breast, adherent) | 0.85 | 2.95 | 0.987 | > 20 | 0.939 | > 5.12 | 0.844 | 5.57
HCC202 (breast, adherent) | 0.972 | > 4 | 0.976 | > 20 | 0.736 | 2.02 | 0.857 | > 8
HCC1143 (breast, adherent) | 0.78 | 2.37 | 0.978 | > 20 | 0.896 | > 5.12 | 0.789 | 5.22
HCC1395 (breast, adherent) | 0.91 | > 4 | 0.984 | > 20 | 0.894 | > 5.12 | 0.904 | > 8
